The campaign covered roughly 45,000 compounds. About 200 (0.44%) were called active. About 7% were inconclusive and are not listed. Calls follow the shape of the dose curve; as a rule, active = well fitted activation curve with a large enough effect; inconclusive = small, poorly fitted or top-dose-only effect; inactive = no such curve, though single readings can be large or run the other way. The list shows a part of the results.
Experiment: qHTS of TDP-43 Inhibitors: NCGC Sytravon Library Screen; also: 0% is about no effect; nearly all actives have a fitted effect of over 55% in size
Settings: yeast TDP-43 toxicity rescue, BacTiter-Glo growth, 24 h; series mostly up to 46.1 µM; growth rescue (activation): at the top concentration
In short: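 TDP-43-expressing yeast, pregrown in raffinose, seeded at OD600 0.02 in galactose medium with compound for 24 hr at 30 deg C. Growth read by BacTiter-Glo luminescence, so rescue of toxicity appears as activation.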

| SMILES | growth rescue (activation) |
| --- | --- |
| N=C1/C(=C\c2ccc(SCc3ccco3)o2)C(=O)N=C2SC=NN12 | inactive: 11.2% |
| Cc1ccc2c(c1)N(Cc1cccc(C#N)c1)C=NS2(=O)=O | inactive: -13.1% |
| Cc1cc(C)cc(NC(=O)CSc2cc(C(=O)c3nccn3C)c3ccccc3n2)c1 | inactive: 9.91% |
| O=C(Oc1ccc(Cl)c2cccnc12)C12CC3CC(CC(C3)C1)C2 | inactive: 26.3% |
| CCc1ccc(N(CC(=O)NC2CCCC2)C(=O)CCC(=O)Nc2cc(C)on2)cc1 | inactive: 15.5% |
| Cc1ccc(CN2CCCC(CO)(Cc3ccccc3C)C2)s1 (centres undefined) | inactive: -6.45% |
| Cc1ccc(CNC(=O)C(CC(C)C)OC(=O)c2ccco2)cc1 (centres undefined) | inactive: 12.1% |
| CC(C)(C)CC(=O)Nc1ccc(S(=O)(=O)NC2=NCCCCC2)cc1 | inactive: 1.58% |
| Cc1csc(NC(=O)c2ccc(N3CCCC3=O)cc2)n1 | inactive: -18.9% |
| CCOC(=O)N1CCN(C(=O)C2CCN(C(=O)Nc3ccccc3)CC2)CC1 | inactive: 0.839% |
| C/C(=N/NC(=O)c1cccs1)c1cccc(N)c1 | inactive: 15.4% |
| N#C/C(=C(/O)c1ccc([N+](=O)[O-])cc1)c1nnc2n1CCCCC2 | inactive: -10.8% |
| CCc1cccc(CC)c1NC(=O)CSc1nnc(C2CC2)n1C | inactive: 0.263% |
| COc1cc(NC(=O)N2CCc3nc(NCc4cccc(Oc5ccccc5)c4)ncc3C2)cc(OC)c1OC | inactive: 22.5% |
| COC(=O)C(C)Oc1cc(OC(C)C(=O)OC)c2c(C)c(Cl)c(=O)oc2c1 (centres undefined) | inactive: 12.9% |
| C#CCN1C(=O)S/C(=C/C=C/c2ccc(N(C)C)cc2)C1=O | inactive: 5.71% |
| Nc1nc(CSc2nnc(-c3cccc(F)c3)n2-c2ccccc2)nc(N2CCOCC2)n1 | inactive: 0.621% |
| Cc1ccc(-n2nc(CC#N)c(C#N)c2N)cc1 | inactive: 4.11% |
| O=C1CCN(C2CCN(Cc3nc(Cc4ccccc4F)no3)CC2)CCN1 | inactive: -9.47% |
| COC(=O)c1cc(CSc2nc3ccc(C)cc3[nH]2)oc1C | inactive: 10.8% |
| Cc1ccc2c(c1)N(C)/C(=C/c1cccc[n+]1C)S2 | inactive: -3.54% |
| COc1ccc2c(c1)[nH]c1c(=O)n(CCN3CCOCC3)cnc12 | inactive: 12.9% |
| CC1(C(=O)NCc2ccco2)Cc2c(-c3cccc(C(F)(F)F)c3)ccnc2O1 (centres undefined) | inactive: 8.27% |
| COc1ccc(N2C(=O)C(CC(=O)Nc3ccccc3)N(CCc3ccc(OC)c(OC)c3)C2=O)cc1 (centres undefined) | inactive: -0.913% |
| COc1cc(/C=N/N=C2/NC(=O)C(CC(=O)O)S2)ccc1OCc1ccc(Cl)cc1 (centres undefined) | inactive: -9.79% |
| Cc1ccc(NC(=O)COC(=O)CCNS(=O)(=O)c2c(Cl)cccc2Cl)cc1 | inactive: -20.2% |

| SMILES | growth rescue (activation) |
| --- | --- |
| CCCCN(C(=O)CSc1nc2ccccc2s1)c1c(N)n(CCCC)c(=O)[nH]c1=O | inactive: 22.7% |
| C/C(=N\OC(=O)c1c(-c2c(F)cccc2Cl)noc1C)c1nccs1 | inactive: 6.52% |
| Cc1ccc(-c2n[nH]c(=O)c3ccccc23)cc1S(=O)(=O)Nc1ccc(F)cc1 | inactive: 26.6% |
| C=CCn1c(O)c(/C=C2\C=NN=C2c2ccccc2)sc1=S | inactive: 3.46% |
| COc1ccccc1NC1=C(N2CCCCC2)C(=O)c2ccccc2C1=O | inactive: 15.8% |
| CC(C)c1c(C(=O)N/N=C/c2cccnc2)nnn1-c1nonc1N | inactive: 5.54% |
| COc1cccc(C(NC(C)=O)c2nc(-c3cccc(NC(C)=O)c3)cs2)c1 (centres undefined) | inactive: -0.633% |
| CNC(=S)Nc1cccc(Cl)c1C | inactive: 2.81% |
| COc1cccc(CNCCO)c1OCc1ccccc1Cl | inactive: 11.2% |
| COc1cc(S(=O)(=O)N2CCOCC2)ccc1NC(=O)COC(=O)/C=C/c1cc(OC)c(OC)c(OC)c1 | inactive: 1.22% |
| CC(C)(C)c1ccc(S(=O)(=O)NC(=O)C2(C)CCN2C(=O)C2CCCCC2)cc1 (centres undefined) | inactive: 18.9% |
| CC(C)Oc1ccc(CCC(=O)NNC(=S)Nc2ccccc2)cc1 | inactive: 12.2% |
| CCc1nnc(NC(=O)CSc2nc3ccc(OC)cc3[nH]2)s1 | inactive: -8.17% |
| C/C(=N\NC(=O)c1ccc(C)cc1C)c1ccc2c(c1)OCO2 | inactive: 20.7% |
| NNC(=O)c1cc2ccccc2[nH]1 | inactive: 12.3% |
| c1ccc2c(c1)oc1c(NCCCN3CCOCC3)ncnc12 | inactive: 3.58% |
| CC(C)Oc1ccc(C(=O)Nc2cccc(S(=O)(=O)N3CCCC3)c2)cc1 | inactive: 26.9% |
| COc1ccc2c(COC(=O)c3cccc(S(=O)(=O)NCC(C)C)c3)cc(=O)oc2c1 | inactive: 16.3% |
| CCOc1ccc(NC(=O)NNC(=O)c2ccc(CC)s2)cc1 | inactive: -2.94% |
| CCOc1ccc(NC(=O)CN2C(=O)/C(=C3\SC(=S)N(C4CCS(=O)(=O)C4)C3=O)c3ccccc32)cc1 (centres undefined) | inactive: -25.2% |
| COc1cc(C(=O)COC(=O)C2CCCCC2)cc(OC)c1OC | inactive: 7.67% |
| N#Cc1cc([N+](=O)[O-])ccc1NC(=O)CSc1n[nH]c(=O)[nH]c1=O | inactive: -6.96% |
| Cc1c(CCO)sc[n+]1CC(=O)OC12CC3CC(CC(C3)C1)C2 | inactive: -2.57% |
| OCCn1nc2c3ccccc3nc-2n(-c2ccccc2)c1=S | inactive: 7.7% |
| CC(=O)c1cccc(S(=O)(=O)N(C)C2CCN(C)CC2)c1 | inactive: 11.3% |
| O=C(O)C1=C(C(=O)Nc2cccc(C(F)(F)F)c2)CCCC1 | inactive: -0.596% |

| SMILES | growth rescue (activation) |
| --- | --- |
| NC(=O)C12CCCC(Br)(CCC1)C2 | inactive: -0.431% |
| Cc1[nH]c2ccc(Cl)cc2c(=O)c1CN1CCCC1 | inactive: 6.9% |
| CCOC(=O)C1(Cc2ccccc2C)CCCN(C(=O)CCc2cccnc2)C1 (centres undefined) | inactive: 9.53% |
| Cc1ccc(C(=O)NCc2n[nH]c(=S)n2-c2ccccc2)cc1[N+](=O)[O-] | inactive: -5.08% |
| O=C(CSc1nnc(NC2CC2)s1)c1ccc[nH]1 | inactive: 8.98% |
| OC(COCc1ccc2c(c1)OCO2)CN1CCN(Cc2ccccc2)CC1 (centres undefined) | inactive: -8.74% |
| Cn1cc(P(=S)(N2CCOCC2)N2CCOCC2)cc1P(=S)(N1CCOCC1)N1CCOCC1 | inactive: 5.3% |
| O=C(NC1CCCN(c2ccc(C(F)(F)F)cn2)C1)c1ccnc(Cl)c1 (centres undefined) | inactive: 22.1% |
| CCCOc1cccc(C2C(C(=O)c3cccs3)=C(O)C(=O)N2Cc2cccnc2)c1 (centres undefined) | inactive: 3.84% |
| O=C1N(Cc2ccccc2)CCCC12CCCN(Cc1ccccc1)C2=O | inactive: 16% |
| COc1ccc(/C=C/C(=O)c2cc(F)ccc2OC(=O)c2ccccc2C)cc1OC | inactive: 20.5% |
| CN1CCC(N(C)S(=O)(=O)c2ccc(NC(=O)c3ccc(S(=O)(=O)N(C)C)cc3)cc2)CC1 | inactive: 7.41% |
| O=S(=O)(c1ccc(Br)s1)N1CCN(c2ccc(F)cc2)CC1 | inactive: 1.75% |
| Cc1c(C(=O)OCC(=O)NC(=O)NC2CCCCC2)cccc1[N+](=O)[O-] | inactive: 16.9% |
| COc1cccc(N(C(=O)c2snc(C(N)=O)c2N)C(C(=O)NCC2CCCO2)c2c[nH]c3ccccc23)c1 (centres undefined) | inactive: 0.118% |
| CCOCCCNC(=O)c1ccc2c(c1)ncn2-c1cccc(C)c1 | inactive: 21.3% |
| COc1cccc2cc(S(=O)(=O)c3ccc(C)cc3)/c(=N/NS(=O)(=O)c3ccc(C)cc3)oc12 | inactive: -3.43% |
| COCCNc1nc(NCCNC(C)=O)c2sc(-c3ccccc3)cc2n1 | inactive: -4.28% |
| O=C(COc1ccc2c(-c3ccccc3)cc(=O)oc2c1)NC(Cc1c[nH]c2ccccc12)C(=O)O (centres undefined) | inactive: 29.5% |
| CCOC(=O)C1ON2CCCCC2C1(O)C(F)(F)F (centres undefined) | inactive: 2.17% |
| CCC(Sc1nc(-c2cccc(OC)c2)c(C#N)c(=O)[nH]1)C(=O)Nc1nnc(C(C)C)s1 (centres undefined) | inactive: -21% |
| O=C(O)CSCC(=O)NCc1ccc(Cl)cc1Cl | inactive: 7.58% |
| O=C(/C=C/c1ccccc1)NC1CCSC1=O (centres undefined) | inactive: 11.8% |
| Cc1cccn2c(=O)c3cc(C#N)c(=NC(=O)c4ccco4)n(Cc4ccco4)c3nc12 | inactive: 3.4% |
| CC(C)(C)N(Cc1cc2ccccc2[nH]c1=O)C(=O)C1CCCCC1 | inactive: 10.5% |
| CCOC(=O)c1c(C)[nH]c(C(=O)N(C)Cc2cccc(OC)c2OC)c1C | inactive: -39.5% |

| SMILES | growth rescue (activation) |
| --- | --- |
| Cc1c(NC(=O)CN2CCN(c3ccc([N+](=O)[O-])cc3)CC2)c(=O)n(-c2ccccc2)n1C | inactive: -5.5% |
| Cc1ccc(NC(=O)c2noc3c2CCC3)cc1C | inactive: 39.5% |
| Clc1ccc(Cn2nc(-c3ccccc3)nc2-c2ccccc2)cc1 | inactive: -0.814% |
| Cc1cnc(C(=O)OCC(=O)N2CCc3ccccc3C2)cn1 | inactive: -9.26% |
| Nc1nc2ncc(C(=O)c3cc(F)ccc3O)cc2s1 | inactive: 24.2% |
| CCCC(=O)NC(c1ccc(C)cc1)c1ccc2cccnc2c1O (centres undefined) | inactive: 6.93% |
| COc1ccc(N(CC(=O)Nc2cc([N+](=O)[O-])ccc2C)S(C)(=O)=O)cc1OC | inactive: -24.7% |
| O=C(N/N=C/c1ccco1)c1ccc(NC(=O)c2ccc(Cl)cc2)cc1 | inactive: -12.1% |
| O=C(CN1C(=O)COc2ccccc21)NCCCN1CCOCC1 | inactive: -3.08% |
| NC(=S)N=Nc1c(O)n(CCCl)c2ccc(Br)cc12 | inactive: 10.1% |
| O=C(COC(=O)c1cccc([N+](=O)[O-])c1)Nc1ncc(Br)s1 | inactive: 13.6% |
| O=C(COc1ccc([N+](=O)[O-])cc1Cl)Nc1ccc2[nH]c(=O)[nH]c2c1 | inactive: 1.55% |
| CSCC[C@H](NC(=O)COc1cc2c(c3oc(=O)c(C)c(C)c13)CCC(C)(C)O2)C(=O)O | inactive: -8.15% |
| Cn1cccc1CNC(=S)Nc1ccccc1Cl | inactive: -30.4% |
| Cc1ccc2nc(-c3ccc(NC(=O)COC(=O)c4ccco4)cc3)sc2c1 | inactive: 15.7% |
| COCCn1c(SCC(=O)Nc2ccccc2)nnc1-c1ccoc1C | inactive: 3.67% |
| COC(=O)CCC(=O)Nc1sc(Cc2ccccc2)c(C)c1C(N)=O | inactive: -10.9% |
| CCN(CC)S(=O)(=O)c1cc(NS(=O)(=O)c2cccs2)ccc1C | inactive: 12.4% |
| COc1ccccc1N(C)S(=O)(=O)c1ccc(C(=O)O)cc1 | inactive: 7.65% |
| CC(C)CN(C(=O)CN1CCN(c2ccccc2O)CC1)c1c(N)n(CC(C)C)c(=O)[nH]c1=O | inactive: 7.56% |
| CCCS(=O)(=O)NC(=O)C1(C)CCCN(C(=O)COCc2ccccc2)C1 (centres undefined) | inactive: -3.69% |
| COc1ccc(NC(=O)CSc2nnnn2C2CCCCC2)c(OC)c1 | inactive: 12.9% |
| COC(=O)c1c(NC(NC(=O)c2ccccc2)(C(F)(F)F)C(F)(F)F)sc2c1CCN(C)C2 | inactive: -4.56% |
| CC(=O)COc1ccc2cc(-c3ccccc3)c(=O)oc2c1 | inactive: 5.08% |
| Nc1nc(NCCCN2CCOCC2)nc(Nc2ccccc2F)c1[N+](=O)[O-] | inactive: -6.64% |
| Cc1cc(C)cc(-n2c(=O)c3ccccc3n(CC(=O)NCC3CCCO3)c2=O)c1 (centres undefined) | inactive: -3.61% |
